In all, about 94,000 compounds went through this assay and about 6,200 (6.6%) were called active. Inconclusive results, whose numbers are uncertain, are shown with a selection of clear calls. Calls come from the whole dose curve; as a rule, active = well fitted inhibition curve with a large enough effect; inconclusive = small, poorly fitted or top-dose-only effect; inactive = flat fitted curve, though single readings scatter. A potency beside an inconclusive call is a rough fit, not a confirmed value.
Test: Cytotoxic Profiling in HEK 293 Cell Line of Diverse Libraries Using Quantitative High-Throughput Screening; note: nearly all actives have a fitted effect of over 60% in size
Conditions: HEK 293 viability, ATP luminescence (CellTiter-Glo), 48-72 h; series mostly up to 115 µM
Procedure, shortened: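 Luminescence from cellular ATP, measured with CellTiter-Glo, indicates HEK 293 viability. Cells plated at 250 cells/well are treated with compound for 48 or 72 hr at 37 degree Celsius before reagent addition.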
Potency is the fitted concentration of half-maximal effect; tags give direction and shape of the fitted curve.

Question: With `O=C(c1ccc(Cl)nc1)N1CCN(c2nccc(Nc3ccccc3Cl)n2)CC1` as the compound, how does the Potency read?
Answer: inconclusive: 56.2 µM [inhibitor, partial curve, poor fit]

Question: For `Cc1cccc(-c2cnc3n[nH]c(-c4ccc5c(c4)OCO5)c3n2)c1`, which Potency is on record?
Answer: active: 70.8 µM

Question: For `O=C(Cn1nc(-c2cccs2)ccc1=O)NC1CCCc2c1[nH]c1ccccc21` (configuration not stated), which Potency is on record?
Answer: inconclusive: 89.1 µM [inhibitor, single point]

Question: For `CN1CC(=O)N(C2CCCCC2)Cc2c(NCCO)ncnc21`, which Potency is on record?
Answer: inactive

Question: For `CNC(=O)[C@H]1CN(C(=O)OCc2ccccc2)[C@]2(C)C(=O)N(CCOC)c3ccccc3[C@H]12`, which Potency is on record?
Answer: inconclusive: 39.8 µM [inhibitor, single point]

Question: Which Potency does the source give for `O=[S+]1([O-])NCC2(CCN(Cc3cccc4ccccc34)CC2)Nc2ccccc21` here?
Answer: inconclusive: 44.7 µM [inhibitor, partial curve, poor fit]

Question: For `CC(=O)Nc1ccc(C(=O)NC2CCN(c3cc(-c4ccc(F)cc4)[nH]n3)C2)cc1` (configuration not stated), which Potency is on record?
Answer: inconclusive: 89.1 µM [inhibitor, single point]

Question: Which Potency does the source give for `CCOC(=O)C1CCN(C(=O)c2ccc3nnc(-c4ccoc4)n3c2)CC1` here?
Answer: inactive

Question: Which Potency does the source give for `COc1ccc(C(=O)N2CCC3(CNc4ccccc4[S+](=O)([O-])N3)C2)cc1` (configuration not stated) here?
Answer: inconclusive: 63.1 µM [inhibitor, partial curve, poor fit]

Question: For `O=C(CNC(=O)c1ccc(-c2cccc(C(F)(F)F)c2)cc1)NCc1cccc(Cl)c1`, which Potency is on record?
Answer: inconclusive: 89.1 µM [inhibitor, single point]

Question: Which Potency does the source give for `Cc1ccccc1-c1ccc2c(n1)CN(Cc1ccccc1)C(=O)CO2` here?
Answer: inconclusive: 100 µM [inhibitor, partial curve, poor fit]

Question: With `CSc1cccc(NC(=O)N2C[C@H](c3nc(-c4ccccc4)no3)[C@@H](C)C2)c1` as the compound, how does the Potency read?
Answer: inconclusive: 35.5 µM [inhibitor, partial curve, poor fit]

Question: With `NC1CCCCN(Cc2ccc(Cl)c(F)c2)C1` (configuration not stated) as the compound, how does the Potency read?
Answer: inconclusive: 56.2 µM [inhibitor, partial curve, poor fit]

Question: With `COc1ccc(NC2CCCN(C(=O)CCCS(N)(=O)=O)C2)cc1` (configuration not stated) as the compound, how does the Potency read?
Answer: inactive

Question: With `Cc1noc(C)c1CCC(=O)N1CCCC(CCc2cccc(F)c2)C1` (configuration not stated) as the compound, how does the Potency read?
Answer: inconclusive: 44.7 µM [inhibitor, partial curve]

Question: With `CCCCn1c(=O)c(C(=O)N2CCN(C(=O)c3ccc(OC)cc3)CC2)nc2cccnc21` as the compound, how does the Potency read?
Answer: inactive

Question: For `CCc1ccc(C2CC(C(=O)NCc3ccccc3)CN(C(=O)c3ccoc3)C2)cc1` (configuration not stated), which Potency is on record?
Answer: inconclusive: 50.1 µM [inhibitor, partial curve, poor fit]
